# Whole data set: some 33,000 sequences, median “E-score (dimensionless, -0.5 to 0.5)” near -0.058, cut for the highest 2% near 0.35. The list shows a part of the results.
# Test system: MvaT
# Experiment: PBM 8-mer E-score (mean of HK and ME arrays) (E-score (dimensionless, -0.5 to 0.5)); higher = stronger relative binding preference; most listed sequences are background and not binding sites
# Method: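 Protein binding microarray: GST-tagged full-length MvaT (P. aeruginosa PAO1) bound to two universal double-stranded 60-mer arrays (ME and HK), each with a constant 25-mer primer and a variable 35-mer region covering all 8-mers. The 8-mer E-score (rank-based, range -0.5 to 0.5, >0.45 = specific binding) is the mean of the two arrays.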
row,Sequence,PBM 8-mer E-score
1,CTATTGTA,0.34
2,ACCTAGGA,-0.126
3,GCCGGCAA,-0.142
4,GAGTCACC,-0.0527
5,CGCTTGTA,-0.0789
6,CATTGAAA,0.0806
7,CCCATGGA,-0.251
8,ACCTGCAA,-0.136
9,CAATTCTA,0.109
10,CGCCAAGA,-0.173
11,ATACATGA,0.111
12,GCCGCTAA,0.0747
13,AGCTGTAC,-0.129
14,ATTCATGG,0.0165
15,AAAACCAT,0.0923
16,AGATGTGC,-0.131
17,TTATTGAA,0.279
18,CGGTGGCA,-0.169
19,CGACCTTA,0.0242
20,AAGTTCTA,0.305
21,AATAGGTA,0.187
22,CCGCCTCC,-0.28
23,GCACCACA,-0.083
24,TAACGAGA,0.112
25,AGCACCAG,-0.134

row,Sequence,PBM 8-mer E-score
1,ACTAAGGG,0.0246
2,AGAGTACC,-0.127
3,AAGCCGCC,-0.273
4,AGCAGTTA,0.12
5,AATACCTC,0.00434
6,CTTCTCTA,0.0214
7,ACGCAAGC,-0.143
8,TCTTCTAA,0.163
9,CATAGTCC,-0.0221
10,AGAACCAT,0.018
11,GATCTGCA,0.0635
12,TAATTTAA,0.457
13,AACATATT,0.392
14,GGTCATTA,0.0945
15,ACGCCGCT,-0.168
16,CACCGTGA,-0.268
17,ACCCGCAG,-0.239
18,AAACCTAC,-0.0782
19,ATGATCAC,-0.0926
20,AGAAGTGA,0.00815
21,ATCTTAGC,0.0838
22,ACAAAAAT,0.199
23,AACACCAT,-0.000821
24,GATAGCGC,-0.129
25,AGATGGCC,-0.241

row,Sequence,PBM 8-mer E-score
1,ACTACTCG,-0.0682
2,CCGAAGGC,-0.263
3,ATAACGCG,0.12
4,AACGCAAA,0.174
5,GCATTAAA,0.256
6,CGGCGTAC,-0.23
7,CATGGAAC,-0.0543
8,CTTCTAGC,-0.0316
9,GGATGAAA,-0.0113
10,CCACTGCC,-0.168
11,CTCAAGAA,0.000127
12,GTGTGAAC,0.0097
13,AACCCTGT,-0.0337
14,ACTTGCAA,0.123
15,AAGGTAAC,0.046
16,TGGGCACA,-0.0266
17,ATGGGCAA,-0.101
18,ATTGTTTG,0.213
19,TCAGTTCA,-0.00177
20,TAGATCGA,-0.0137
21,GGGAGAAC,-0.0868
22,GATTGCTA,0.0477
23,AGCCCTTG,-0.282
24,GATCGGCA,-0.203
25,AAAAAAGC,0.138

row,Sequence,PBM 8-mer E-score
1,CACTATCC,0.0404
2,CCGATGGC,-0.331
3,GCTGAATA,0.0801
4,AATGGTCA,0.0647
5,TCGACAGA,0.0616
6,CGCGACCC,-0.194
7,TGCTAAAA,0.0594
8,CAATTCTG,0.0476
9,CGGATGTC,-0.17
10,ACGGAAGT,0.166
11,AGAGGGCT,-0.285
12,AACGTTCT,0.108
13,ATGCCATA,-0.00484
14,CCGTCACC,-0.133
15,ACATCAGG,0.00258
16,ATTTAGGG,0.034
17,AGAATAGA,0.051
18,ACCAGCAT,-0.00479
19,AGGATACT,-0.0212
20,ACGCATTA,0.23
21,CTCCGGGC,-0.248
22,CCCCGAGC,-0.2
23,TCAAGCCA,-0.114
24,CTATCAAA,0.0554
25,GCGTGCCC,-0.331

row,Sequence,PBM 8-mer E-score
1,GAAAGGTA,0.0588
2,AGATGCTG,-0.101
3,CCTACGAG,-0.148
4,CCTAGAGA,-0.155
5,GATGCTCC,-0.117
6,GCAGCTGC,-0.102
7,TCGGCGCA,-0.121
8,AAAAACCC,0.0378
9,CTAGTGTA,0.173
10,CTGTCCAA,-0.151
11,GGTCTGAC,-0.188
12,CTTACTTC,0.208
13,CGAAAGTA,0.175
14,CCATTTCG,0.00358
15,GACTCGGA,-0.0701
16,GGGCGCCA,-0.0642
17,CCACCCTA,0.0237
18,ATCCTGGG,-0.197
19,CCATTTAG,0.0769
20,CCGATTAG,0.00629
21,AACATAAC,0.245
22,CTCGGTTA,-0.0194
23,ACGGAAGG,-0.218
24,CACCTGGA,-0.208
25,TCTTGTAA,0.2

row,Sequence,PBM 8-mer E-score
1,GGTCTGCA,-0.158
2,AAAGGGAC,-0.0794
3,ATTTCGGG,-0.0342
4,ACGCTCAT,-0.161
5,CGCTACGC,-0.225
6,ACCGGGTC,-0.186
7,CTACGATC,0.0594
8,ACATTTAC,0.314
9,CGGCGTAG,-0.196
10,ACAATTGC,0.1
11,ACTCGACA,-0.13
12,CTTTATAA,0.344
13,ACTGGTAT,0.142
14,CTCTGTCA,-0.249
15,ATTCAGAC,0.0707
16,CCTAGTGA,-0.228
17,CTAAAGGC,-0.0414
18,CGTTTTTA,-0.0211
19,GGGCATAC,-0.172
20,CGCAACGA,-0.0798
21,ATTTCAGA,0.238
22,AACTTCGG,0.138
23,GTTTCATA,0.223
24,CAGATGCG,-0.228
25,TTCGGCAA,-0.00458

row,Sequence,PBM 8-mer E-score
1,CTCAAAAA,0.0587
2,AAACTAGG,0.0438
3,AGCCCTCA,-0.148
4,GCCCGTAC,-0.173
5,CCACAAAC,0.0225
6,CGTTCCAA,0.0493
7,TAAGAAAA,0.203
8,GTTGAACA,0.011
9,GGTCCCCA,-0.303
10,CAGCCTGC,-0.232
11,CTAAGCGC,-0.0856
12,CCGTTCCG,-0.348
13,CGATGTAC,0.108
14,ACAAGCAA,0.00182
15,AAGGACGG,-0.17
16,CTCGGACC,-0.281
17,GAATAATC,0.188
18,ACCCCAGA,-0.195
19,AGCTGCCG,-0.302
20,GTCTACAA,-0.00741
21,AGACCCAG,-0.134
22,ACCCGCCA,-0.0778
23,GTCTGAAA,-0.0498
24,AACCGTAA,0.129
25,CAGATTAA,0.137

row,Sequence,PBM 8-mer E-score
1,AACGAGAG,-0.094
2,TAGAGCTA,-0.0766
3,AATACGGA,0.106
4,GGCGCCTA,-0.234
5,CTTTGTTC,0.00923
6,CCCACGGA,-0.185
7,AGATTAAT,0.379
8,AAGGGTGT,-0.175
9,ATGGTACG,-0.0257
10,GGTCTCAC,-0.253
11,AATTCGTG,0.0577
12,ATGCACAC,0.068
13,CGAACTTC,0.101
14,CATGATAG,0.014
15,CAAAGCGA,0.00337
16,CCTTGCTC,-0.147
17,CAGAAGTC,-0.0107
18,TATAGCAA,0.262
19,GACTGTCA,-0.174
20,CAAGGGAA,-0.155
21,CTTTAATC,0.141
22,CATACGTC,-0.0873
23,ACCGCGCC,-0.057
24,AGTGAACC,-0.148
25,CACGAAAG,-0.0835

row,Sequence,PBM 8-mer E-score
1,GTCTTAAA,0.12
2,CAGCCAGC,-0.363
3,ATAAGACC,0.102
4,GGCGTCCC,-0.291
5,ATAATCTA,0.344
6,CGCCCTAA,0.00695
7,CTGTCCCC,-0.2
8,GACACCAA,-0.0951
9,AACCTTGA,-0.124
10,CGCCGGAA,-0.0357
11,ACCGGCCT,-0.0568
12,CTACTCGC,-0.164
13,CCGACCAG,-0.232
14,TGCTGCAA,-0.0241
15,ATAGGTGA,-0.0882
16,GATTATAC,0.223
17,AAGCCAGG,-0.179
18,ATCCCCGC,-0.131
19,CATGACTC,-0.128
20,CTGGTGCA,-0.0667
21,CAGAGCAA,-0.0754
22,CCGGAACC,-0.114
23,ACCGGAAA,-0.00431
24,GGATTTAA,0.283
25,CTGTGATC,-0.107

row,Sequence,PBM 8-mer E-score
1,TCCCCCAA,-0.322
2,TGGCGGAA,-0.0865
3,GCCCATAC,-0.093
4,AAATCTAT,0.134
5,CAGTCCAG,-0.268
6,AGATAAAC,0.169
7,CGTAAGCA,-0.0735
8,CTTGGGGC,-0.289
9,CGGGCCAG,-0.341
10,GGCCCAAA,-0.203
11,CAGCGCAA,0.0189
12,AAGACATG,0.0346
13,GAATGTGC,-0.0165
14,ATCATGAA,0.192
15,ACTGGACC,-0.127
16,AGGTCGGG,-0.313
17,GACGCTCA,-0.235
18,GCAGAAGC,-0.313
19,ACAGTTAT,0.305
20,AGCTAGCA,-0.178
21,AGATGTTG,0.127
22,ATGAGGGA,-0.14
23,AGTTTAAA,0.378
24,GACCCCAA,-0.184
25,AGCCAGGG,-0.272

row,Sequence,PBM 8-mer E-score
1,ACTGGATG,-0.102
2,AATGCAGT,0.0384
3,CCATGTGC,-0.111
4,CCACACCG,-0.0885
5,CCTGCGAC,-0.142
6,CAGCAGCG,-0.247
7,AGCCTCTC,-0.373
8,CAAGTATC,0.154
9,ACATCGCA,-0.088
10,CATCAGGC,-0.265
11,GCTTCGTA,-0.105
12,CCCCCATA,-0.173
13,GCCCGTTA,0.0647
14,CAAGATGC,-0.222
15,ATATGCTG,0.23
16,GCAATACA,0.0621
17,ACGAGGTG,0.00753
18,AGTCACTA,-0.00735
19,ATAAAATC,0.193
20,GCCCGAGC,-0.162
21,ATCGTTAC,-0.0464
22,ACAATGTA,0.278
23,TCACATAA,0.154
24,ATAGGTTG,0.073
25,ACCACGCT,-0.22

row,Sequence,PBM 8-mer E-score
1,GAGAGTAA,0.104
2,AAAACAAG,0.122
3,CGTGCGAG,-0.0939
4,CGCATTAG,-0.00831
5,CTTACGAC,0.0391
6,AAAGTCAG,0.0529
7,ACGCGTAC,-0.136
8,GATACGCC,-0.0453
9,GCCCCTAA,-0.0882
10,AGCACGTA,-0.0766
11,CAGTGTGG,-0.0125
12,CAAACTGC,0.0485
13,CAGCCTAC,-0.132
14,CCTCGCCG,-0.274
15,CGCGGGCA,-0.192
16,CTCTACGC,-0.0458
17,AAGCGTAT,-0.0148
18,AATTAACT,0.354
19,AAGCGCTA,-0.0549
20,ACGGGCGC,-0.162
21,GGATATAC,0.208
22,CATTCCGC,-0.168
23,ATAGACAG,0.0269
24,TACGTAGA,0.0901
25,ACAGCTCA,-0.189

row,Sequence,PBM 8-mer E-score
1,AAGTATTC,0.161
2,AGAGTGCT,-0.118
3,CTCGGTTC,-0.181
4,ATCATAAT,0.245
5,CGGCGTTA,-0.0451
6,CAGCTCAA,-0.0251
7,ATTTGGCC,-0.102
8,AACGCCTT,0.033
9,CGTCGGCA,-0.294
10,CGTCGCAA,-0.0288
11,CCCTGCGA,-0.245
12,CCTACCAA,-0.271
13,AGGGTGCA,-0.167
14,CGGCGTGA,-0.23
15,AACTTGAA,0.322
16,CTTTCTGA,0.0775
17,GCACAGGA,-0.145
18,GTCAAAGA,-0.0646
19,AATCCGCT,0.00442
20,AAATCACC,0.0824
21,ATCTCAGA,-0.0328
22,CACCGATA,0.151
23,CCCTTCAG,-0.27
24,AGTTATGG,0.25
25,GACTACGA,-0.0412

row,Sequence,PBM 8-mer E-score
1,GAAGCCCA,-0.28
2,GATGTACC,-0.0137
3,AACCGGGC,-0.073
4,ATGATGCC,-0.0717
5,ATTCACGC,-0.0952
6,CCGGCAGG,-0.284
7,CCTTTGAG,-0.158
8,CTCATATC,-0.0618
9,TATGGTCA,0.0445
10,CCGGTGCA,-0.305
11,AGCTGTAA,0.0102
12,ATTGAGCC,-0.104
13,CAGTCTCC,-0.134
14,CAGTTTGC,0.0121
15,CATAAAGG,-0.124
16,CCTCCTAA,-0.197
17,ATAAAAAC,0.274
18,CACCAGGC,-0.208
19,GATAGACC,-0.222
